Results taken from article PMC4336329 (PLoS ONE, 2015).
The campaign covered roughly 310,000 compounds. About 14,000 (4.5%) showed an effect of 50% or more. The effect is printed as a negative number. This is one part of the list.

These compounds were tested against human ether-à-go-go-related gene (hERG) potassium channel (human, UniProt Q12809) (assay: primary screen, population patch clamp on CHO cells stably expressing hERG).
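Further: peak tail current of the secondary pulse compared with the same well before compound.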

human ether-à-go-go-related gene (hERG) potassium channel, sequence (Q12809 whole entry, looked up): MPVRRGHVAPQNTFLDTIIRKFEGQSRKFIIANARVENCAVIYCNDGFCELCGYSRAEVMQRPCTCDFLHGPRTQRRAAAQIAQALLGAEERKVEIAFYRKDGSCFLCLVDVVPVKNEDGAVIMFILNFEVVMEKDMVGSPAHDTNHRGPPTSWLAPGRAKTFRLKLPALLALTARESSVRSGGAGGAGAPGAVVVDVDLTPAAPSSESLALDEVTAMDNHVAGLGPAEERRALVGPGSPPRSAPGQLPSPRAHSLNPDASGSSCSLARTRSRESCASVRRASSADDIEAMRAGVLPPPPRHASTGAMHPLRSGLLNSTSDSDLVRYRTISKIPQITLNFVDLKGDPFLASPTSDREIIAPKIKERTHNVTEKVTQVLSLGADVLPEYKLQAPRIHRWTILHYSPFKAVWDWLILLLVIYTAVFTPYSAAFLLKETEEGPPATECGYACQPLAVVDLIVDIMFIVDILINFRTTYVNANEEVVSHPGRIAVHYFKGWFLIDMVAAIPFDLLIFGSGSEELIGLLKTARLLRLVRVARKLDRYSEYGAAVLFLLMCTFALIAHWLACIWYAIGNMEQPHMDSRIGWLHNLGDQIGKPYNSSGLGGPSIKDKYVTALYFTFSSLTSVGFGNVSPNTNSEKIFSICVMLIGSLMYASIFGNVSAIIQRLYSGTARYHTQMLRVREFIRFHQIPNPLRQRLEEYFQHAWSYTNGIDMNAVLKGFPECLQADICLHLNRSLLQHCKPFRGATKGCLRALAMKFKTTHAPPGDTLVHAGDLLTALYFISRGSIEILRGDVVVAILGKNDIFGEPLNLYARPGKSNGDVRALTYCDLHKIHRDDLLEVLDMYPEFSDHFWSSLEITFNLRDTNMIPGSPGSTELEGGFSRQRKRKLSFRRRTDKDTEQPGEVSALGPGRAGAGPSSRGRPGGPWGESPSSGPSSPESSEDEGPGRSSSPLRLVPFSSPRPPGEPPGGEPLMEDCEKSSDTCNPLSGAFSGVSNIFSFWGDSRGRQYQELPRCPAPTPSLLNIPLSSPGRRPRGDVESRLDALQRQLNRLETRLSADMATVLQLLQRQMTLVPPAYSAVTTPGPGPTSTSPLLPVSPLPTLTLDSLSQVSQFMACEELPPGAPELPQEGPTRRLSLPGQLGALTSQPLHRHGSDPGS

SMILES	hERG current change (%, negative = inhibition) at 10uM
Cc1cccc(CNCCc2ccccc2)n1.Cl	-17.1%
Cc1cc(C)c(C(=O)COC(=O)C2CCN(c3ccc(C(F)(F)F)cn3)CC2)cc1C	6.63%
CCOC(=O)c1c(NC(=O)CSc2nnc(C)s2)sc2c1CCN(C)C2	-46.4%
Cc1cc(/C=C(\C#N)C(=O)NCc2ccco2)c(C)n1-c1ccc(C(=O)O)cc1	15.8%
CC(C)Oc1ccc(C(=O)CCN2CCCCC2)cc1	-20.9%
O=C(c1cccnc1)N1CCN(S(=O)(=O)c2ccc3ccccc3c2)CC1	-34.9%
CN(C)S(=O)(=O)c1ccc2c(c1)nc(CCC(=O)NCc1ccc(Cl)cc1)n2C	-30.5%
CCOc1ccc(NC(=O)C(Cc2ccccc2)N2C(=O)c3cccc4cccc(c34)C2=O)cc1 (stereo not drawn)	16.5%
O=C1CS/C(=N\NC(=O)c2ccccc2)N1	15.6%
CCCn1cnc2cc(NCc3ccc(Br)cc3)ccc21	-73.9%
CCOC(=O)C1(CC2CCCCO2)CCN(Cc2nc3ccccc3[nH]2)CC1 (stereo not drawn)	-19.5%
CCOc1ccc(S(=O)(=O)NC(Cc2c[nH]c3ccccc23)C(=O)O)cc1 (stereo not drawn)	10.4%
N#Cc1ccc(CSc2nnc(Nc3ccccc3)s2)cc1	10.5%
O=C(NCC(c1ccco1)N1CCCCC1)c1cc2c(s1)CCCC2 (stereo not drawn)	-23.6%
Cc1cc(NC(=O)c2cnn3c(C(F)F)cc(-c4ccccc4)nc23)no1	-8.36%
COc1cc(/C=N/NC(=S)NC2CC3C=CC2C3)cc(OC)c1OC (stereo not drawn)	-18%
CC(C)CC(=O)NC(=S)Nc1cc(C(F)(F)F)ccc1N1CCOCC1	1.41%
CC1CCCCC1NC(=O)Cn1[nH]c(=O)c2ccccc2c1=O (stereo not drawn)	0.493%
Fc1ccccc1COc1ccc(/C=N/NC(=S)NCc2ccccc2)cc1	5.68%
COc1ccc(CN2C(=O)c3cccnc3C2=O)cc1S(=O)(=O)N1CCOc2ccc(Cl)cc21	1.2%
Cc1ccc2c(c1)-c1c(ssc1=S)C(C)(C)N2C(=O)CN1C(=O)c2ccccc2C1=O	14.8%
CC(NCc1cccs1)C(=O)Nc1cc(Cl)cc(Cl)c1 (stereo not drawn)	-2.04%
Cc1ccc2occ(/C=N/NC(N)=S)c(=O)c2c1	15%

SMILES	hERG current change (%, negative = inhibition) at 10uM
CCCCCCN1C=C/C(=C\C=C(C#N)C#N)c2ccccc21	-37.4%
CN1C(=O)NC2C1N(S(C)(=O)=O)CCN2S(C)(=O)=O (stereo not drawn)	17.8%
Cc1ccccc1NC(=O)Cn1c([N+](=O)[O-])cnc1C	18.7%
Cc1ccc(-c2noc(-c3ccccc3C(=O)N3CCCC3)n2)cc1	-32.3%
Cc1c(NS(=O)(=O)c2cc(C(=O)NCc3cccnc3)cc(Cl)c2Cl)c(=O)n(-c2ccccc2)n1C	-31.3%
Cc1cc(=O)n2nc(N3CCC(C(=O)Nc4c(F)c(F)c(F)c(F)c4F)CC3)sc2n1	-18.5%
COc1ccc(/C=N/NC(=O)CN(C2=NS(=O)(=O)c3ccccc32)c2ccccc2)cc1OC	-9.44%
CC(C(=O)O)N1CCCCC1.Cl (stereo not drawn)	-21.5%
COc1ccc(C(=O)COc2ccccc2C#N)cc1	2.58%
O=c1nc(-c2ccccc2)n(-c2ccccc2)[nH]1	1.69%
Cc1ccc(C(=O)c2c3ccc(C(F)(F)F)cc3[n+]([O-])n2CCC[NH3+])cc1.O=C([O-])C(F)(F)F	-75%
CCn1c(=O)n(CC)c2cc(N3CCCC3)c(NC(=O)c3ccccc3OC)cc21	-4.68%
O=C(Cn1c(=O)sc2ccccc21)NCc1ccccn1	4.49%
CCOc1cc(CNc2ccccc2)cc(Br)c1OCc1ccccc1F	15.3%
O=C(CN1CCCCC1)Nc1cccc(Br)c1	-39%
O=c1[nH]c2cccc(F)c2n2cccc12	1.61%
COCCCNc1nc(N)c([N+](=O)[O-])c(NCC2CCCO2)n1 (stereo not drawn)	18.1%
Br.COc1ccc(C2=CSC(/N=C/c3ccc(F)cc3)=NN2)cc1	5.78%
CCC1CCCCN1C(=O)c1cc(-c2ccc(Cl)c(Cl)c2)on1 (stereo not drawn)	-17.6%
COC(=O)c1c(C)[nH]c(C(=O)/C=C/c2ccccc2Cl)c1C	-23.8%
CC1(C)OC(=O)C(=CNn2cnc3ccccc3c2=O)C(=O)O1	20%
O=C1NC(=O)C2(COC(c3cccc([N+](=O)[O-])c3)OC2)S1 (stereo not drawn)	20.5%
O=C(NC(=S)Nc1cnc2ccccc2c1)c1ccccc1	10.8%

SMILES	hERG current change (%, negative = inhibition) at 10uM
CCCn1c2ccc(C)cc2c2nnc(SCCN3CCOCC3)nc21	-32.5%
Cc1ccc(C(=O)O/N=C/C2=C(Cl)c3ccccc3CC2)cc1	12.7%
O=C(Cn1ccc([N+](=O)[O-])n1)NCCc1c[nH]c2ccccc12	8.49%
O=S(=O)(c1ccc(C2CCCCC2)cc1)N1CCOCC1	-6.57%
CN(Cc1nc2ccccc2n1C)S(=O)(=O)c1ccc(F)cc1	-16.9%
O=C(NCC1CCCO1)c1ccc[nH]1 (stereo not drawn)	12.3%
CCN1CCN(c2ccc(NC(C)=O)cc2Cl)CC1	-1.19%
O=C1CNC(=O)/C(=C/c2cccs2)N1	11.2%
CCCCn1c(N)c(N(CCOC)C(=O)CCC2CCCCC2)c(=O)[nH]c1=O	-0.603%
CC(c1ccon1)N(C)Cc1cn[nH]c1-c1ccc(-c2ccccc2)cc1 (stereo not drawn)	0.991%
CS(C)(=O)=NS(=O)(=O)c1ccc(Cl)cc1	3.24%
Cc1cc(C)cc(OCCOc2cccc(C=C3C(=O)NC(=O)NC3=O)c2)c1	20.3%
CC1CCCCN1C(=O)Nc1cccc(Cl)c1 (stereo not drawn)	-16%
CCOC(=O)Cn1c(C)[n+](CC(=O)c2ccccc2)c2ccccc21.[Br-]	22.7%
CC(OC(=O)CN1C(=O)c2ccccc2C1=O)C(=O)NC1CCCCC1C (stereo not drawn)	7.49%
c1ccc(CSc2nccc(-c3ccco3)n2)cc1	-4.16%
CS(=O)(=O)NNP(=O)(NNS(C)(=O)=O)NC(=O)c1ccccc1	-44.4%
COc1nnc(OC)c2ccccc12	-2.81%
CCC(Sc1ncccn1)C(=O)Nc1cc(C)on1 (stereo not drawn)	10.1%
Cc1cccc(NC(=O)C2CCN(S(=O)(=O)c3cccc4nonc34)CC2)c1	-0.218%
CC1(C)CC(=O)C=C(Nc2ccccc2N)C1	1.24%
CC(OC(=O)CNC(=O)c1ccco1)C(=O)Nc1ccc(Cl)cn1 (stereo not drawn)	-11.4%
CSc1ccccc1NC(=O)COC(=O)c1c[nH]c(=O)[nH]c1=O	6.94%

SMILES	hERG current change (%, negative = inhibition) at 10uM
CCOc1ccc(NS(=O)(=O)c2cc(C(=O)NCCCN3CCCC3=O)ccc2C)cc1	6.64%
Cc1ccc(-c2nc3ccccc3[nH]2)cc1NC(=O)c1sc2cc(Cl)ccc2c1Cl	11.6%
Cc1cc(C)c(C)c(S(=O)(=O)N2CCN(c3ccccn3)CC2)c1C	13.7%
CC(CC(=O)Nc1cccc(F)c1)S(=O)(=O)c1ccc2c(c1)NC(=O)CO2 (stereo not drawn)	-14.8%
COc1ccc2c(c1)CCC(C)N2S(=O)(=O)c1ccc(C2CNC(=O)C2)cc1 (stereo not drawn)	-26.2%
Cc1nn(-c2ccc(F)cc2)c(Cl)c1/C=N/NC(=O)c1cccc(S(=O)(=O)N2CCCC2)c1	3.29%
O=C(CCCn1c(=O)[nH]c2cc(Cl)ccc2c1=O)NC1CCCCCC1	-6.67%
Cc1nnc(NC(=O)CSc2nc(C(C)C)nc3ccccc23)s1	8.47%
CC(C)n1c(NCCc2ccccc2)nc2c1c(=O)n(C)c(=O)n2C	8.06%
Cc1ccc(C2CC(c3cccc(NS(C)(=O)=O)c3)=NN2S(C)(=O)=O)cc1 (stereo not drawn)	-69.3%
CCOc1ccc(NC(=O)CN(C)C(=O)COc2cccc(CC)c2)cc1OCC	-24.4%
CCC(Sc1nc(C)cc(C)n1)C(=O)Nc1ccc(Cl)cn1 (stereo not drawn)	-16.6%
O=C(C[n+]1cccc2ccccc21)c1ccc([N+](=O)[O-])cc1.[Br-]	-72.4%
COc1cc2c(cc1OC)CN(C1CCCN(Cc3cc(Cl)ccc3O)C1)CC2 (stereo not drawn)	-49.6%
Cc1c(O)ccc(C(=O)COc2ccccc2F)c1O	-6.37%
CCOC(=O)CN1C(=O)SC(CC(=O)Nc2nccs2)C1=O (stereo not drawn)	17%
CCOc1cc(/C=N\NC(=O)OC)ccc1OC(=O)c1ccco1	2.95%
COc1cccc(NC(=O)CN(C)C(=O)/C=C/c2cc(OC)ccc2OC)c1	-67.8%
CCOc1ccc(CNC(=O)c2ccc(Sc3ccc(Cl)cc3)c(NC(C)=O)c2)cc1OC	-15.5%
Cc1cccc(C)c1NC(=O)CN(C)C(=O)c1ccc(-c2cccc(C(F)(F)F)c2)o1	-12.5%
CC(=O)Oc1ccc(C(=O)O)c(OC(C)=O)c1	12.1%
